The campaign covered roughly 48,000 compounds. About 1,200 (2.5%) were called active. Not shown: some 2% with an inconclusive outcome.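 Rule for the calls: active = activation of at least 60% and not above a set upper limit (about 1 call in 100 departs from these limits); inconclusive = activation of 40% to 60%, or above that upper limit; inactive = activation under 40%.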 The list shows a part of the results.
Molecular target: Probable G-protein coupled receptor 32 (Homo sapiens) (UniProt O75388)
Assay: qHTS for Agonists of Human Resolvin D1 Receptor DRV1; note: 0% is about no effect
Conditions: CHO-K1 GPR32 beta-arrestin PathHunter luminescence, 90 min; at 76.9 µM; hits give high values; zero percent set by DMSO-only wells
In short: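 Step 1: seed CHO-K1 GPR32 beta-arrestin cells, 2,500/well, overnight at 37 °C. Step 2: add compounds, 90 min at 37 °C. Step 3: detection reagent, 1 h ambient, then luminescence.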

UniProt O75388, sequence (O75388 whole entry, looked up): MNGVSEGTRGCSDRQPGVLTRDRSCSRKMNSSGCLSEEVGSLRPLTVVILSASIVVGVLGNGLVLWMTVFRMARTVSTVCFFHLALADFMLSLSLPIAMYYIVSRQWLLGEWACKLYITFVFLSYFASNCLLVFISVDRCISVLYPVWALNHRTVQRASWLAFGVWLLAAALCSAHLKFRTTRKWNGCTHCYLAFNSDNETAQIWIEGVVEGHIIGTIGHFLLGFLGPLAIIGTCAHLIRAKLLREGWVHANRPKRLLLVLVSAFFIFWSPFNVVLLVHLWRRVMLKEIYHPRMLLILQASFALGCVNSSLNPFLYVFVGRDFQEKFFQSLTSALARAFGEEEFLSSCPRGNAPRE

Structure (SMILES)	activation
CCCN(CCC)C(=O)Cn1c(=O)n(-c2cccc(C)c2)c(=O)c2c1c1cc(OC)ccc1n2C	inactive: -25.1%
CC(C)CC(=O)NCC(c1ccc2c(c1)OCO2)N1CCN(c2ccccc2)CC1 (stereo unspecified)	inactive: -12%
O=C(CN1CCCN(Cc2cccc(Cl)c2)S1(=O)=O)Nc1ccc2c(c1)OCCO2	inactive: 18.4%
COc1ccc(-c2[nH]nc3nc(-c4cc(Br)ccc4OC)cc(C(=O)O)c23)cc1	inactive: -23.4%
Cc1c(C(=O)OC2CCCCC2)[nH]c2c1C(=O)CC(c1ccc(F)cc1)C2 (stereo unspecified)	inactive: -5.86%
Cc1cccc(NC(=O)c2ccc(-n3c(C)nnc3C)cc2)c1	inactive: -3.49%
Cc1ccc(-n2ncc3c(N4CCCCCC4)ncnc32)cc1Cl	inactive: 14.4%
CCC(=O)Nc1ccc(Cl)c(-c2nc3ccccc3[nH]2)c1	inactive: 23.1%
COc1ccccc1CN1CCC(CNC(=O)c2cnn(-c3ccccc3Cl)c2C2CCN(C(=O)OC(C)(C)C)CC2)CC1	inactive: -30.3%
O=C(CSc1ncccc1C(=O)Oc1ccccc1Cl)Nc1ccc(C(F)(F)F)cc1Cl	inactive: -11.6%
Cc1ccc(O)c(NC(=O)C2=CC(c3ccco3)=NS(=O)(=O)N2C)c1	inactive: -2.67%
COC(=O)c1ccc(NC(=O)C(=O)NCCc2csc(-c3ccc(F)cc3)n2)cc1	inactive: -6.78%
COc1ccc(N2CCN(Cc3nc4c(c(=O)[nH]c(=O)n4C)n3Cc3ccccc3C)CC2)cc1	inactive: -8.92%
Cc1csc2nc(COC(=O)CNC(=O)c3ccccc3)cc(=O)n12	inactive: 32.4%
COc1ccc(NC(=O)C2CCCN(S(=O)(=O)c3ccc(F)cc3)C2)cc1 (stereo unspecified)	inactive: 5.3%
O=c1oc2ccccc2cc1-c1cn2cc(Cc3cc(Cl)ccc3Cl)sc2n1	inactive: -4.3%
Cc1ccc(CN(C(=O)COc2ccccc2[N+](=O)[O-])c2ccccn2)o1	inactive: 2.23%
CCc1nnc(NC(=O)CSc2nc3c([nH]c4ccccc43)c(=O)n2-c2ccc(Cl)cc2)s1	inactive: -12.3%
FC(F)(F)c1cc(-c2ccccc2)nc2cc(-c3ccccc3)nn12	inactive: 21.8%
CCN(CC)S(=O)(=O)c1ccc2c(c1)N(CC(=O)Nc1cccc(C#N)c1)C(=O)CO2	inactive: -26.8%
COc1ccc(NC(=O)Cn2c(=O)oc3cc(S(=O)(=O)N4CCCCCC4)ccc32)cc1OC	inactive: 48.7%
Cc1ccc2onc(CC(=O)N3CCN(c4cccc(Cl)c4)CC3)c2c1	inactive: -32.1%

Structure (SMILES)	activation
Cc1cc(F)ccc1NC(=O)Cn1cc(S(=O)(=O)NC(C)C)c(S(=O)(=O)NC(C)C)c1	inactive: 7.18%
CCCCSc1nc2sc3c(c2c(=O)n1-c1ccccc1C)CC(C)(C)OC3	inactive: -7.14%
COc1ccc(NC(=O)CNC(=O)Cn2c(C)cc3ccccc3c2=O)c(OC)c1	inactive: -3.41%
O=C(c1ccccc1)N1CCN(CCc2ccccn2)CC1	inactive: 4.34%
CCOc1ccc(-n2cc(-c3ccccc3)c3c(Nc4cccc(F)c4)ncnc32)cc1	inactive: -6.12%
CCN(Cc1ccccc1)S(=O)(=O)c1cc(Br)cc2c1N(C(=O)C1CC1)CC2	inactive: -0.57%
CCOc1ccc(C(=O)Nc2nnc(SCc3cc(=O)n4ccccc4n3)s2)cc1	inactive: -4.02%
COc1cccc(C(=O)Nc2c(C(=O)Nc3ccc(F)cc3)oc3ccccc23)c1OC	inactive: 1.51%
CCOc1ccc(-c2nnc(SCC(=O)Nc3cccc(C#N)c3)o2)cc1	inactive: 7.3%
CCCCOC(=O)c1c(C)oc2c1cc(NS(=O)(=O)c1cc(OC)ccc1OC)c1ccccc12	inactive: 0.0799%
CC1CCN(C(=O)Cn2c(-c3cccs3)cc3cc(Cl)ccc32)CC1	inactive: -13.1%
COc1cccc(NC(=O)Nc2ccc3c(c2)N(C)C(=O)c2ccccc2S3)c1	inactive: 4.16%
COc1ccc(-c2c(C)c3ccc(O)c(CN4CCOCC4)c3oc2=O)cc1OC	inactive: 11%
Cc1ccc(C)c(NC(=O)C(CC(C)C)N2Cc3ccccc3C2=O)c1 (stereo unspecified)	inactive: -18.3%
Cc1cc(C)c2c(c1)c(C)cc1nnc(SCC(=O)c3ccccc3)n12	inactive: -14%
O=C(CSc1nccn1Cc1ccc(F)cc1)NCc1ccco1	inactive: -10.7%
CCCN1Cc2cccc(C(=O)Nc3cc(Cl)ccc3C)c2C1=O	inactive: -5.35%
Cc1cccc(NC(=O)c2sc3ncnc(N(C)C4CCCCC4)c3c2C)c1C	inactive: 0.84%
CC(C)(C)c1ccc(C(=O)Nc2ccc(-c3nc4ccccc4o3)c(O)c2)cc1	inactive: -2.24%
O=C(CN1C(=O)c2ccccc2Sc2ccc(C(=O)N3CCOCC3)cc21)Nc1ccc(Cl)cc1F	inactive: -8.73%
CCN1CCN(Cc2c(O)ccc3oc(C)c(C(=O)Nc4cccc(C(F)(F)F)c4)c23)CC1	inactive: -4.4%
COc1cccc(NC(=O)c2c(C)oc3nc(C)nc(N4CCCC4)c23)c1	inactive: -10.6%

Structure (SMILES)	activation
CCN(CC)c1ccc2cc(-c3nc4sc5c(c4c(=O)[nH]3)CCC(C(C)(C)C)C5)c(=O)oc2c1 (stereo unspecified)	inactive: -4.03%
Cc1cccc(C)c1NC(=O)c1cc(S(=O)(=O)N2CCc3ccccc3C2)ccc1F	inactive: -2.44%
CCC(=O)N1CCc2cc(S(=O)(=O)CCC(=O)N3CCN(c4cccc(C)c4C)CC3)ccc21	inactive: -16%
COc1ccc(CC(=O)Nc2nc3c(s2)CCCC3)cc1	inactive: -9.33%
Cc1ccc2c(c1)N(C(=O)CCC(=O)NCc1cccc(F)c1)CC(C)O2 (stereo unspecified)	inactive: -14.6%
COc1cccc2cc(-c3nc(-c4ccc(Cl)cc4)cs3)c(=O)oc12	inactive: 16.7%
CCOC(=O)c1cccc(NC(=O)CCS(=O)(=O)c2ccc3c(c2)CCN3C(=O)CC)c1	inactive: -15.2%
O=C(c1ccc(Cl)cc1)n1nc(-c2cccnc2)nc1NCc1ccc(F)cc1	inactive: -11.3%
CCOc1ccc(-c2cc3c(=O)n(CC(=O)NCc4ccc(F)cc4)ccn3n2)cc1	inactive: 6.45%
CCCCOc1ccc(C(=O)N(Cc2ccccc2)C2CCS(=O)(=O)C2)cc1 (stereo unspecified)	inactive: -10.4%
CCn1c(=O)c2sccc2n2c(CCCC(=O)N3CCN(c4ccc(F)cc4)CC3)nnc12	inactive: -7.28%
CC(=O)c1cccc(NC(=O)c2ccc3nc(Cc4ccccc4)oc3c2)c1	inactive: 3.31%
COC(=O)Cc1c(C)c2ccc3c(c2oc1=O)CN(Cc1ccccc1Cl)CO3	inactive: -9.89%
NC1CONC1=O (stereo unspecified)	inactive: 2.28%
CCOc1ccc(-c2c(C)nn3c(C)c(C(=O)NCCc4ccc(C)cc4)cnc23)cc1OCC	inactive: 1.4%
CCc1c(C)sc2c1CCN(Cc1ccccc1F)C2c1ccccc1 (stereo unspecified)	inactive: 32.6%
Cc1nc2cccnc2n1C1CCN(C(=O)Nc2ccc(Cl)cc2)CC1	active: 87.7%
O=C(NCCSc1c[nH]c2ccccc12)c1ccccc1Cl	inactive: -56.9%
COc1ccc(NC(=O)C2CCN(S(=O)(=O)c3c(C)noc3/C=C/c3cccs3)CC2)cc1Cl	inactive: -12.2%
COCCNC(=O)c1ccccc1NC(=O)c1nsc2ccccc12	inactive: -11.4%
CNC(=O)CN1C(=O)COc2ccc(S(=O)(=O)N3CCC(C)CC3)cc21	inactive: -2.81%
CCCCCCCCOc1ccc(C(=O)c2ccccc2)c(O)c1	inactive: 1.5%

Structure (SMILES)	activation
COC(=O)Cn1c(SCCOc2ccccc2OC)nc2ccccc21	inactive: -1.13%
CCc1cc2c(cc3c(=O)n(CC(=O)NCCc4ccc(OC)cc4OC)nc(CC)n32)s1	inactive: 6.62%
COc1ccc2[nH]cc(CCN=C(NC(=O)c3ccccc3OC)Nc3nc(C)cc(C)n3)c2c1	inactive: 42.6%
Cc1ccc(-n2cnnn2)cc1S(N)(=O)=O	inactive: 6.33%
COc1cccc(Cn2cc(C(=O)c3ccc(Cl)cc3)c(=O)c3ccccc32)c1	inactive: 6.29%
Cc1ccc(NC(=O)c2ccc(NC(=O)CCS(=O)(=O)c3cccs3)cc2)cc1F	inactive: -8.13%
CCSc1ncc(Cl)c(C(=O)Nc2cccc(Cl)c2)n1	inactive: 16.7%
Cc1ccccc1Nc1c(-c2ccc(N3CCOCC3)cc2)nc2ccc(Br)cn12	inactive: -29.3%
COc1cccc(NC(=O)CN2C(=O)c3ccccc3Sc3ncccc32)c1	inactive: 11.5%
COc1ccc(NC2=C(c3ccc(C(F)(F)F)cc3)C(=O)c3ccccc32)cc1	inactive: -18.9%
COc1ccccc1C(=O)Nc1c(C(=O)NC(C)(C)C)oc2ccccc12	inactive: -32.1%
Cc1ccc(-n2nc(C)c3c(C(F)(F)F)cc(-c4cccnc4)nc32)cc1Cl	inactive: 6.28%
COc1cc(OC)c(N(C)C(=O)Nc2cn(CC(C)C)c(=O)c3ccccc23)cc1Cl	inactive: -5.36%
CCCc1nn2c(=O)cc(COC(=O)CNC(=O)COc3ccc(C)cc3)nc2s1	inactive: -7.47%
COc1ccc(S(=O)(=O)N2CCN(c3ccccc3OC)CC2)cc1	inactive: -8.88%
CCOC(=O)c1ccc(NC(=O)c2cn3c4c(ccc(Cl)c4c2=O)OC(C)C3)cc1 (stereo unspecified)	inactive: 13.2%
Cc1ccc(-c2nc(C)c(CCNC(=O)c3ccccc3Br)s2)cc1	inactive: 13%
CC1CCN(c2ccc(-c3cccc(NS(=O)(=O)c4ccc(F)cc4F)c3)nn2)CC1	inactive: -0.288%
CC1CCN(C(=O)CSc2nc(-c3ccc(F)cc3)cc(C(F)(F)F)n2)CC1	inactive: -4.23%
CCOC(=O)c1sc(NC(=O)c2c(-c3ccccc3)c(-c3ccccc3)nn(C)c2=O)nc1C	inactive: -14%

From PubChem BioAssay AID1346428 (National Center for Advancing Translational Sciences (NCATS), 2018)
